About 14,000 (4.5%) of roughly 310,000 compounds showed an effect of 50% or more. The effect is printed as a negative number. The list shows a part of the results.
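Further: peak tail current of the secondary pulse compared with the same well before compound.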

The target of the test is human ether-à-go-go-related gene (hERG) potassium channel (human, UniProt Q12809). As to the kind of experiment: primary screen, population patch clamp on CHO cells stably expressing hERG.
Sequence of human ether-à-go-go-related gene (hERG) potassium channel (Q12809 whole entry, looked up): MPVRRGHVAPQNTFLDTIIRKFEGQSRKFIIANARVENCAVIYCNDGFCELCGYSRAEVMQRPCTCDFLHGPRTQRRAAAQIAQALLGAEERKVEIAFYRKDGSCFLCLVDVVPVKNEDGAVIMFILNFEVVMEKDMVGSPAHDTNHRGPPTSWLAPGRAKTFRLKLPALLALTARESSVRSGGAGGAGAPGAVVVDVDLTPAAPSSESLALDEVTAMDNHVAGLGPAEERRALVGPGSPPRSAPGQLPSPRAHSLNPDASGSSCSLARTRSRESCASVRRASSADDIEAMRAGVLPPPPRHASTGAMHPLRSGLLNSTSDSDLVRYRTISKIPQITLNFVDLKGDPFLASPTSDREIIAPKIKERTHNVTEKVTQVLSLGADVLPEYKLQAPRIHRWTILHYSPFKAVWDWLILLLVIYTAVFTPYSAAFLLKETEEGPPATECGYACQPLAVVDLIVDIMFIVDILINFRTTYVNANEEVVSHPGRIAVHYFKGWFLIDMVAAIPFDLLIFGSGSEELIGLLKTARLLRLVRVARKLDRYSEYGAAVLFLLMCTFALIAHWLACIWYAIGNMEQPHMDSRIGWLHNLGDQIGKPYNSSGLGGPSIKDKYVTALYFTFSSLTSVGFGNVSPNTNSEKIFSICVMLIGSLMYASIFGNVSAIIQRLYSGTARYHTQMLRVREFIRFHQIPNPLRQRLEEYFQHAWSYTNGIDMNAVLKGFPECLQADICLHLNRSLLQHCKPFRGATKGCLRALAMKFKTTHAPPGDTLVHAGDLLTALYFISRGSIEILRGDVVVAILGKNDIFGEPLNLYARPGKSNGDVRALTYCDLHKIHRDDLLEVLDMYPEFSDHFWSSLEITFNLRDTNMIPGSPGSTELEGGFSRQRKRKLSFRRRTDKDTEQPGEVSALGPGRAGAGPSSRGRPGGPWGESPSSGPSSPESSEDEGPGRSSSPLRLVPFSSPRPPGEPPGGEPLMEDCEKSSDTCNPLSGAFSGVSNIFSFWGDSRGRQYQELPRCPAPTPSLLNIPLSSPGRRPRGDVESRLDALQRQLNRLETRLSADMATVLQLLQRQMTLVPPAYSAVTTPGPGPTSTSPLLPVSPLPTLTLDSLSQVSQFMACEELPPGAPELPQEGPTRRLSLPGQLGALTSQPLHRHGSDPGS
For `Cn1c(=O)c2[nH]c(-c3ccc(S(=O)(=O)O)cc3)nc2n(C)c1=O.O`, the “hERG current change (%, negative = inhibition) at 10uM” value came out at 10.2%.
As for `CC(=O)Nc1cccc(C(=O)N(Cc2ccccc2)Cc2ccccc2)c1`, the “hERG current change (%, negative = inhibition) at 10uM” value is reported as 3.97%.
Consider `CC(=O)Nc1ccc2oc(-c3ccccc3)nc2c1`, for which the “hERG current change (%, negative = inhibition) at 10uM” value turned out to be 18.1%.
With `Cc1ccc(-n2c(-c3ccc(Cl)cc3)n[nH]c2=S)cc1`, the “hERG current change (%, negative = inhibition) at 10uM” value is 10%.
In the case of `Cc1cc(Br)ccc1NC(=O)CN(C)C(=O)c1cc([N+](=O)[O-])ccc1N1CCOCC1` it was -41.9%; in that of `COc1cc(OC)cc(C(=O)NNC(=S)NC(=O)c2cccnc2)c1`, 14.4%.
Turning to `CCOc1ccc(OCC)c(NC(=O)C2CCN(S(=O)(=O)c3c(C)[nH]c(=O)[nH]c3=O)CC2)c1`, the “hERG current change (%, negative = inhibition) at 10uM” value is reported as 7.51%.
The figure for `CC(=O)c1ccc(OCCCC(=O)Nc2cc(Cl)ccc2-n2cncn2)cc1` is -18.1%; for `Cc1cc(C)c(C#N)c(Nc2ccccc2)n1` it is -3.13%.
As for `CCc1cc(=O)oc2cc(C)cc(OC(C)C(=O)NCC(O)c3ccccc3)c12` (stereo not shown), the “hERG current change (%, negative = inhibition) at 10uM” value is listed as 4.7%.
On to `Cc1ccsc1/C=N/N1CCN(Cc2ccccc2)CC1`, for which the “hERG current change (%, negative = inhibition) at 10uM” value is on record as 9.07%.
For `O=C1c2ccccc2C(=O)N1CC(O)COc1ccccc1Cl` (stereo not shown), the “hERG current change (%, negative = inhibition) at 10uM” value was 5.7%.
Take `CC(=O)c1c(C)nn(CC(O)COc2ccc3c(c2)CCC3)c1C` (stereo not shown): the “hERG current change (%, negative = inhibition) at 10uM” value was determined as 2.55%.
In the case of `COC(=O)c1[nH]c2ccc(Cl)cc2c1NC(=O)C1CC1`, the “hERG current change (%, negative = inhibition) at 10uM” value is 17.1%.
Consider `Cc1c(CCC(=O)O)c(=O)n2c([nH]c3ccccc32)c1C#N`, for which the “hERG current change (%, negative = inhibition) at 10uM” value is listed as -3.61%.
Take `Cc1ccc(CN2C(=O)CC(Nc3ccc(N4CCOCC4)cc3)C2=O)cc1` (stereo not shown): the “hERG current change (%, negative = inhibition) at 10uM” value was 5.8%.
Regarding `O=C(Nc1nc2ccccc2s1)C1CCCN1S(=O)(=O)c1ccc(Cl)cc1` (stereo not shown), the “hERG current change (%, negative = inhibition) at 10uM” value is listed as -7.55%.
As for `CS(=O)(=O)N1CCN(C(=O)Cc2cccs2)CC1`, the “hERG current change (%, negative = inhibition) at 10uM” value came to 16.8%.
In the case of `CC(C)(C)NC(=O)C(c1c[nH]c2ccccc12)N(C(=O)Cn1nnc(-c2ccc(Cl)cc2)n1)c1ccccc1F` (stereo not shown) it was 7.15%; in that of `COc1ccc(NC(=O)CSc2ncnc3c2cnn3CCc2ccccc2)cc1`, -4.31%; in that of `COCCn1nnnc1CN1CCC(NC(=O)Nc2cccc(OC)c2)CC1`, 8.3%.
In the case of `CCN(C(=O)COC(=O)/C=C/c1c(C)nn(Cc2ccc(C)cc2)c1C)C1CCS(=O)(=O)C1` (stereo not shown) it was -7.41%.
With `Cc1c(CNCCc2ccc(Cl)cc2)c(C(=O)O)c(C)n1Cc1ccccc1`, the “hERG current change (%, negative = inhibition) at 10uM” value is on record as -50.1%.
In the case of `CCOC(=O)Cc1cnc(NC(=O)CSc2nc(N)cc(=O)[nH]2)s1` it was 30.6%; in that of `O=C(CC1SC(=NCCc2ccccc2)N(/N=C/c2cccs2)C1=O)Nc1ccc(Cl)cc1` (stereo not shown), 19.8%.
On to `COc1ccc(C2(C(=O)Nc3ccc(S(=O)(=O)Nc4nc(C)cc(C)n4)cc3)CCCC2)cc1OC`, for which the “hERG current change (%, negative = inhibition) at 10uM” value is -0.893%.
Turning to `COC(=O)C1=C(C(=O)c2ccccc2)C(c2ccc(O)c(OC)c2)n2nnnc2N1` (stereo not shown), the “hERG current change (%, negative = inhibition) at 10uM” value stood at 11.5%.
Take `CCC(=O)NC(Nc1ncc(C)s1)(C(=O)OC)C(F)(F)F` (stereo not shown): the “hERG current change (%, negative = inhibition) at 10uM” value was -2.4%.
`CCCCN(CC)CCNC(=O)CN(C)S(=O)(=O)c1ccc2c(c1)c(=O)n(C)c(=O)n2C`: the “hERG current change (%, negative = inhibition) at 10uM” value came out at 7.42%.
Turning to `O=C(NCCN1CCCCC1)/C(=N\O)c1ccccc1`, the “hERG current change (%, negative = inhibition) at 10uM” value is reported as 5.35%.
Take `Fc1ccc(COc2ccc(-c3nnco3)cc2)c(Cl)c1`: the “hERG current change (%, negative = inhibition) at 10uM” value is -0.85%.
In the case of `O=c1[nH]c(=S)n(CCC2=CCCCC2)c(O)c1/C=N/Nc1ccccc1`, the “hERG current change (%, negative = inhibition) at 10uM” value was -7.83%.
Take `FC(F)(F)c1ccncc1-c1nnnn1-c1ccc(Cl)cc1`: the “hERG current change (%, negative = inhibition) at 10uM” value is -42.3%.
The figure for `COc1ccccc1/C=C/CN1CCSCC1` is -3.74%.
In the case of `O=C(CSc1nc2ccc(Cl)cc2[nH]1)Nc1ccc2c(c1)CCC2` it was 15.7%; in that of `CCN(CC)C(=O)CC(c1ccc(N(C)C)cc1)c1c(OC)cc(OC)c2ccc(=O)oc12` (stereo not shown), -2.87%; in that of `O=C1CCC(C(=O)NCCN2C(=O)S/C(=C\c3cccnc3)C2=O)=NN1`, 2.26%.
In the case of `COc1cccc(OCC(O)CN2CCC(CN3C(=O)c4cccc5cccc(c45)C3=O)CC2)c1.Cl` (stereo not shown) it was -72.3%.
`COc1ccc(OC)c(NC(=O)Cn2c(=O)n(CC3CCCO3)c(=O)c3cc(OC)c(OC)cc32)c1` (stereo not shown): the “hERG current change (%, negative = inhibition) at 10uM” value is on record as -2.77%.
Consider `CCOP(=O)(OCC)C(C)(C)NC(=O)C(Cl)(Cl)Cl`, for which the “hERG current change (%, negative = inhibition) at 10uM” value is reported as 12.1%.
With `Cc1cc(-c2ccc(S(=O)(=O)NCc3ccc(F)cc3)cc2)on1`, the “hERG current change (%, negative = inhibition) at 10uM” value is -5.39%.
As to `Cc1cccc(OCC(=O)Nc2cccc(C(=O)NCC(C)C)c2)c1`, the “hERG current change (%, negative = inhibition) at 10uM” value is given as -17.4%.
In the case of `Cc1cc(C)c2nc(-c3ccccn3)cc(C(=O)NCCc3ccc(S(N)(=O)=O)cc3)c2c1` it was 17.2%; in that of `Cc1cc(NC(=O)CSc2nc(CCC3CCCC3)nc3ccccc23)no1`, -19.1%.
For the compound `O=C1CCC(C(=O)N(CCO)Cc2ccccc2)CN1CC1CCCCC1` (stereo not shown), the “hERG current change (%, negative = inhibition) at 10uM” value is reported as 11.7%.
Regarding `O=C(OCc1csc(-c2ccccc2)n1)c1cccs1`, the “hERG current change (%, negative = inhibition) at 10uM” value was -1.71%.
`CC1CCCC(C2(O)C(=O)Nc3ccccc32)C1=O` (stereo not shown): the “hERG current change (%, negative = inhibition) at 10uM” value was found to be 23.4%.
For the compound `CCCNC(=O)Cn1cnc2sc(C(=O)Nc3ccc4c(c3)OCO4)c(C)c2c1=O`, the “hERG current change (%, negative = inhibition) at 10uM” value came out at 5.53%.
For `Cc1c(CN2CCC(Oc3ccc(C(=O)N4CCCCC4)cc3)CC2)cnn1C`, the “hERG current change (%, negative = inhibition) at 10uM” value is -0.372%.
As to `O=C(OCCN=C1NS(=O)(=O)c2ccccc21)c1cccnc1`, the “hERG current change (%, negative = inhibition) at 10uM” value is listed as 10.8%.
In the case of `COc1cc(C2Nc3ccccc3NC3=C2C(=O)CC(C)(C)C3)cc(OC)c1OC` (stereo not shown) it was 10.6%; in that of `CCOc1ccc(NC(=S)Nc2ccc(OC(F)(F)F)cc2)cc1`, 11.3%.
In the case of `O=C1NC(=O)C(=Cc2cn(CCOc3ccc4c(c3)OCO4)c3ccccc23)C(=O)N1` it was 14.9%; in that of `N#Cc1nc(-c2ccc(F)cc2)oc1NCc1ccco1`, 4.98%.
On to `CCOC(=O)N1CCN(S(=O)(=O)c2ccc(C)c(C)c2)CC1`, for which the “hERG current change (%, negative = inhibition) at 10uM” value is -5.18%.

These data come from PMC4336329 (PLoS ONE, 2015).
